Experimental data as given in article PMC6656775, “Soluble and membrane-bound protein carrier mediate direct copper transport to the ethylene receptor family” (Scientific Reports, 2019).
Results are given in words; binding and its absence hold for the method and conditions named. Binding seen in cells or lysates may run through a third protein. Some binding calls cover weakened binding; strength is not graded here. Where a sequence is shown, tags or fusion partners need not be part of it. Values belong to the binder of their own block, whether it stands above or below them.

Assays:
Assay in all cases: split reporter; BiFC (split YFP, 2in1 vectors with RFP infiltration control) in transiently transformed N. benthamiana leaves, confocal microscopy; full-length ETR1 constructs under an inducible promoter, ERS1 and ETR1^1–157 constructs constitutive (d35S)
[1] = target: T1, ethylene receptor ETR1, full-length, BiFC fusion (A. thaliana) (UniProt P49333)
T1 sequence: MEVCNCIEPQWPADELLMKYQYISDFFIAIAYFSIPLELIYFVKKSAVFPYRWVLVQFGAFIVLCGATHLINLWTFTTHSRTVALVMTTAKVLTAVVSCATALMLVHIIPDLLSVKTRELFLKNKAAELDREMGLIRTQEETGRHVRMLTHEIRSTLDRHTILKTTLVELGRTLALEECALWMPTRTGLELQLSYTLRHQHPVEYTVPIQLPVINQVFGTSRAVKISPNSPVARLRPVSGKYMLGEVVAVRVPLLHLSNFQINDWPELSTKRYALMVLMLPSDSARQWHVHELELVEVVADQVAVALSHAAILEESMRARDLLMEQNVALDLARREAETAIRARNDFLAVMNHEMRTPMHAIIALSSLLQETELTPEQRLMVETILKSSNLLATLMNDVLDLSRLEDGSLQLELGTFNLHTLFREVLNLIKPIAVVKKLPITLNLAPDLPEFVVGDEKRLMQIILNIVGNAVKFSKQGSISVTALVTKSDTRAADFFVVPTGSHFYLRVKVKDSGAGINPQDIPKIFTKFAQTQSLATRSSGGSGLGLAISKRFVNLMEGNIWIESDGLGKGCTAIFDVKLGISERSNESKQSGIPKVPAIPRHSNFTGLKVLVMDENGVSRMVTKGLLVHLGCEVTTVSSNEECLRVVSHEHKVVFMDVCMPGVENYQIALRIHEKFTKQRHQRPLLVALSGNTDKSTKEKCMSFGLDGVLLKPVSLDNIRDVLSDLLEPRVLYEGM

[2] = target: T2, ETR1^1–157, BiFC fusion (A. thaliana) (UniProt P49333)
T2 sequence: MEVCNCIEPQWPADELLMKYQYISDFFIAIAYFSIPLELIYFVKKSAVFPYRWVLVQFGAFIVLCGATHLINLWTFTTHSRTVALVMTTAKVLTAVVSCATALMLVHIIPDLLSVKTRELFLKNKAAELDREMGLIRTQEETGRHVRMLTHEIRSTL

[3] = target: T3, ethylene receptor ERS1, BiFC fusion (UniProt Q38846)
T3 sequence: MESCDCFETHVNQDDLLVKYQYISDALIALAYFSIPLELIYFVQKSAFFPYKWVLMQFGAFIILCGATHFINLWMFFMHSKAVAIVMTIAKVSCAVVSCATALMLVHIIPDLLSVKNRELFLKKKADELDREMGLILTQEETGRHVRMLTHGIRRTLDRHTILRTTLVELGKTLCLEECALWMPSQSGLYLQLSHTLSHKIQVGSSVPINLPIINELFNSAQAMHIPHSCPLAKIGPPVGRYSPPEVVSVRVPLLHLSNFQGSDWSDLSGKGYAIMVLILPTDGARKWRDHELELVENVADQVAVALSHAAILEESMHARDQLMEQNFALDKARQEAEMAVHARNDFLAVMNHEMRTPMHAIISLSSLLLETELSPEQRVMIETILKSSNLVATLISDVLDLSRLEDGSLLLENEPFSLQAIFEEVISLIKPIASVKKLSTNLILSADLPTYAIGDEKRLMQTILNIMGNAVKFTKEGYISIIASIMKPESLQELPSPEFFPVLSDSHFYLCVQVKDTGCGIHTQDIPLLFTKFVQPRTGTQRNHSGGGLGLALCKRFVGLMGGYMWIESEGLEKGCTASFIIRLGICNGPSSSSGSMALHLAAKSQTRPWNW

[4] = target: T4, RESPONSIVE-TO-ANTAGONIST-1 (RAN1), full-length, BiFC fusion (A. thaliana) (UniProt Q9S7J8)
T4 sequence: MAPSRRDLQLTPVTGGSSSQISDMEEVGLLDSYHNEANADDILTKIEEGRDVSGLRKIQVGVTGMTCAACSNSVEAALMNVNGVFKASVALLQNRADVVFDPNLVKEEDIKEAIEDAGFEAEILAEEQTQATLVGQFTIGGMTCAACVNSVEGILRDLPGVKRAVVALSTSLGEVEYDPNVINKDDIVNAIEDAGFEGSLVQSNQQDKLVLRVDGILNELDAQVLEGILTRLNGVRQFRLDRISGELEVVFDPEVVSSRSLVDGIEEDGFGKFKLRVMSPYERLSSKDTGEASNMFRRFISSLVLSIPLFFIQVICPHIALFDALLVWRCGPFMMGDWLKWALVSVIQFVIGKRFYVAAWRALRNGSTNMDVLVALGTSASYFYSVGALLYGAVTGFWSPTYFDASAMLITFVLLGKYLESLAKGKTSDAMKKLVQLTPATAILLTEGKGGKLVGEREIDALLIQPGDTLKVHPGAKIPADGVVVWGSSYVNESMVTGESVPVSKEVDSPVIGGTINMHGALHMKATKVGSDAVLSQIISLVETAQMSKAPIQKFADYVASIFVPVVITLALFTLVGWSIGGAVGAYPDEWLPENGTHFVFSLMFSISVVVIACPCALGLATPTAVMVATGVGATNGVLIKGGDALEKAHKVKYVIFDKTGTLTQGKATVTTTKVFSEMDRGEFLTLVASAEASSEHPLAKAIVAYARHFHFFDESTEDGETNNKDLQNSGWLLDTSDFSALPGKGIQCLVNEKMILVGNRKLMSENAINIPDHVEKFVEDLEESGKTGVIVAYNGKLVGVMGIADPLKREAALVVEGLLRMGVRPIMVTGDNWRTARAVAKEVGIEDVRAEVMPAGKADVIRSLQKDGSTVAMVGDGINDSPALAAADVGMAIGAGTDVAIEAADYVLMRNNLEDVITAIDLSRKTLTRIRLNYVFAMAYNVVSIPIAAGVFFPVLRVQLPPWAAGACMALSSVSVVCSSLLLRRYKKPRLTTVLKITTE

B2: ANTIOXIDANT-1 (ATX1), BiFC fusion (protein, UniProt Q94BT9 1-76)
chain: MSQTVVLRVAMTCEGCVGAVKRVLGKMEGVESFDVDIKEQKVTVKGNVQPDAVLQTVTKTGKKTAFWEAEGETAKA
binding [4]: binds
binding [1]: binds
binding [2]: binds
binding [3]: binds

B4: COPPER TRANSPORT PROTEIN (CCH), BiFC fusion (protein, UniProt O82089 1-121)
chain: MAQTVVLKVGMSCQGCVGAVNRVLGKMEGVESFDIDIKEQKVTVKGNVEPEAVFQTVSKTGKKTSYWPVEAEAEPKAEADPKVETVTETKTEAETKTEAKVDAKADVEPKAAEAETKPSQV
binding [4]: binds
binding [1]: binds
binding [2]: binds
binding [3]: binds

Next, values leading:

binding [1]: binds
binding [2]: binds
binding [3]: binds
B1: NterRAN1 (amino acids 1–298), BiFC fusion (domain or fragment, UniProt Q9S7J8 1-298)
chain: MAPSRRDLQLTPVTGGSSSQISDMEEVGLLDSYHNEANADDILTKIEEGRDVSGLRKIQVGVTGMTCAACSNSVEAALMNVNGVFKASVALLQNRADVVFDPNLVKEEDIKEAIEDAGFEAEILAEEQTQATLVGQFTIGGMTCAACVNSVEGILRDLPGVKRAVVALSTSLGEVEYDPNVINKDDIVNAIEDAGFEGSLVQSNQQDKLVLRVDGILNELDAQVLEGILTRLNGVRQFRLDRISGELEVVFDPEVVSSRSLVDGIEEDGFGKFKLRVMSPYERLSSKDTGEASNMFRR

binding [1]: no binding
binding [3]: no binding
B3: CterRAN1 (amino acids 299–1001), BiFC fusion (domain or fragment, UniProt Q9S7J8 299-1001)
chain: FISSLVLSIPLFFIQVICPHIALFDALLVWRCGPFMMGDWLKWALVSVIQFVIGKRFYVAAWRALRNGSTNMDVLVALGTSASYFYSVGALLYGAVTGFWSPTYFDASAMLITFVLLGKYLESLAKGKTSDAMKKLVQLTPATAILLTEGKGGKLVGEREIDALLIQPGDTLKVHPGAKIPADGVVVWGSSYVNESMVTGESVPVSKEVDSPVIGGTINMHGALHMKATKVGSDAVLSQIISLVETAQMSKAPIQKFADYVASIFVPVVITLALFTLVGWSIGGAVGAYPDEWLPENGTHFVFSLMFSISVVVIACPCALGLATPTAVMVATGVGATNGVLIKGGDALEKAHKVKYVIFDKTGTLTQGKATVTTTKVFSEMDRGEFLTLVASAEASSEHPLAKAIVAYARHFHFFDESTEDGETNNKDLQNSGWLLDTSDFSALPGKGIQCLVNEKMILVGNRKLMSENAINIPDHVEKFVEDLEESGKTGVIVAYNGKLVGVMGIADPLKREAALVVEGLLRMGVRPIMVTGDNWRTARAVAKEVGIEDVRAEVMPAGKADVIRSLQKDGSTVAMVGDGINDSPALAAADVGMAIGAGTDVAIEAADYVLMRNNLEDVITAIDLSRKTLTRIRLNYVFAMAYNVVSIPIAAGVFFPVLRVQLPPWAAGACMALSSVSVVCSSLLLRRYKKPRLTTVLKITTE

binding [1]: binds
binding [2]: binds
binding [3]: binds
B5: RESPONSIVE-TO-ANTAGONIST-1 (RAN1), full-length, BiFC fusion (protein, UniProt Q9S7J8 1-1001)
chain: T4 sequence
